Data published in publication PMC4336329 (PLoS ONE, 2015).
The campaign covered roughly 310,000 compounds. About 14,000 (4.5%) showed an effect of 50% or more. Effects have a minus sign here. The list shows a part of the results.

molecular target: human ether-à-go-go-related gene (hERG) potassium channel (human, UniProt Q12809); test: primary screen, population patch clamp on CHO cells stably expressing hERG
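Note: peak tail current of the secondary pulse compared with the same well before compound.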

Chain of human ether-à-go-go-related gene (hERG) potassium channel (Q12809 whole entry, looked up): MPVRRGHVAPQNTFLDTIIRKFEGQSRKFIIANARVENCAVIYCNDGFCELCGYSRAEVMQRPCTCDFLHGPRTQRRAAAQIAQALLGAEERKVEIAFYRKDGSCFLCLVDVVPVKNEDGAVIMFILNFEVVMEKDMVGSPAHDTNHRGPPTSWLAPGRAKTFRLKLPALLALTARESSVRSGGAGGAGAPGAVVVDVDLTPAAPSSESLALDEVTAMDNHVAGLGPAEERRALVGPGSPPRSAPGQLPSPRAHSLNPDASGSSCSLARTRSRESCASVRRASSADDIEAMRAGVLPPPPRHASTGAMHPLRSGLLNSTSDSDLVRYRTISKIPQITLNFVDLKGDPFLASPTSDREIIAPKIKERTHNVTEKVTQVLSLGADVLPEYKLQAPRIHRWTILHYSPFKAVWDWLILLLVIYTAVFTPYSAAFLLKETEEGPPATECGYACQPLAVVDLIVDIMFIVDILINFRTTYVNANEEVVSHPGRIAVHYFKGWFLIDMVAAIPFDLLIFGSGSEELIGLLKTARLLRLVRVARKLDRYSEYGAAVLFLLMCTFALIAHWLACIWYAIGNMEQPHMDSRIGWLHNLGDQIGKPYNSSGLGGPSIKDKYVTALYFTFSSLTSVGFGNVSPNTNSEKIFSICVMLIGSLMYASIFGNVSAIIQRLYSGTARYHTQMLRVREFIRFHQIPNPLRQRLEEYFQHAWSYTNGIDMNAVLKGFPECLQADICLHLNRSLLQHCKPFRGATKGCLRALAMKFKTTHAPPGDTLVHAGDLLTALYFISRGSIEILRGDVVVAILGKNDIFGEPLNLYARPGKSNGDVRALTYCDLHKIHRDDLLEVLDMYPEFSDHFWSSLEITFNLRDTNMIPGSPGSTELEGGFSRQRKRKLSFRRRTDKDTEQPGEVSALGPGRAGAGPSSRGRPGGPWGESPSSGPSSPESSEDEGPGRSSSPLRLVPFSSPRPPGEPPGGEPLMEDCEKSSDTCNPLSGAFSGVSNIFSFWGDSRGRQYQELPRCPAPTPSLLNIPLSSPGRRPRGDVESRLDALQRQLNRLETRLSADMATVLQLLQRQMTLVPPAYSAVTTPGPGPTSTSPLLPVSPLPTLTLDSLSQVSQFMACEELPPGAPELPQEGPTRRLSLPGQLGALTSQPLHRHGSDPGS

| SMILES | hERG current change (%, negative = inhibition) at 10uM |
| --- | --- |
| COc1ccc(NC(=O)c2c(Cl)n(C)c3ccccc23)cc1 | 4.91% |
| O=c1cc(-c2ccc(O)c(O)c2)oc2c1ccc1ccccc12 | 6.87% |
| Cc1onc(-c2ccccc2)c1C(=O)N/N=C/c1ccc([N+](=O)[O-])c(O)c1 | 10.1% |
| S=c1[nH]nc(-c2ccncc2)n1Cc1ccco1 | 20.8% |
| CC1CCCCN1C(=O)Nc1ccccc1Cl (stereo not shown) | 0.388% |
| CCN1C(=O)[C@@H]2[C@@H](c3ccc(-c4ccc5c(c4)OCO5)c(OC)c3)N3CCC[C@@]3(C(=O)OC)[C@@H]2C1=O.O=C(O)C(F)(F)F | -46% |
| Cl.O=C(NC1=NCCS1)c1cc(-c2cccnc2)nc2ccccc12 | 5.99% |
| O=S(=O)(c1cccc(-c2n[nH]c(=S)o2)c1)N1CCOCC1 | 14.9% |
| COCCCNC(=O)Cn1ncc2ccsc2c1=O | 13.6% |
| CC(C)CC(=O)N1CCC(O)(CS(=O)(=O)c2ccc(Cl)c(Cl)c2)CC1 | -7.39% |
| Cc1cnc2c(C(=O)O)cnn2c1 | 20.2% |
| Cc1cc(O)ccc1Nc1nc(-c2cccs2)cs1 | -3.9% |
| COc1ccc2[nH]c(=O)c(CN(Cc3nnnn3Cc3ccccc3)CC3CCCO3)cc2c1 (stereo not shown) | -15.8% |
| CCC(OC(=O)c1cccs1)C(=O)NC1CCCCC1 (stereo not shown) | -8.49% |
| Cc1cccc(/C=N/NC(=O)Cn2nnnc2N)n1 | 2.15% |
| Cc1ccc(S(=O)(=O)NCc2cn3c(C)csc3n2)cc1 | -2.8% |
| COc1ccccc1NC(=O)CSc1nnc(Cc2cccn2C)n1-c1ccc(F)cc1 | -30.5% |
| CCCc1nnc(NC(=O)CCCN2C(=O)c3ccccc3C2=O)s1 | 2% |
| CN(C)Cc1nc2ccccc2c(=O)n1Cc1nc(C(C)(C)C)cs1 | -23.1% |
| O=C(NCCCN1CCOCC1)c1ccc(CNS(=O)(=O)c2ccc(F)cc2)cc1 | 10.7% |
| O=C(c1sc2cc(Cl)ccc2c1Cl)N1CCN(CCc2ccccn2)CC1 | -69.6% |
| Cc1cc(N2C(=O)CCC2=O)n(-c2ccccc2)n1 | -24.1% |

| SMILES | hERG current change (%, negative = inhibition) at 10uM |
| --- | --- |
| CCc1nnc(NS(=O)(=O)c2ccc(NS(=O)(=O)c3ccccc3)cc2)s1 | -2.17% |
| C=CCn1c(SCC(C)=O)nnc1-c1ccc2ncccc2c1 | 19% |
| Cc1csc2nc(COC(=O)c3cccc(N(C)C)c3)cc(=O)n12 | -32.5% |
| CCOC(=O)c1nnc(-c2ccccc2)nc1NCc1ccccc1 | -16.5% |
| O=C(Nc1ccc(O)c(C(=O)O)c1)Oc1ccccc1 | 19.5% |
| N#Cc1c(N)nc(N2CCCC2)c(C#N)c1-c1ccc(Cl)cc1 | 1.35% |
| CC(C)C(=O)Nc1cccc(C(=O)Nc2nnc(C(C)(C)C)s2)c1 | -15.2% |
| CC(C(=O)N1CCCCC1)N1CCN(S(=O)(=O)c2ccc(Cl)cc2)CC1.O=C(O)C(=O)O (stereo not shown) | -14.1% |
| CCOC(=O)c1ccc(NC(=O)c2nn(C)cc2Br)cc1 | 7.53% |
| CCOC(=O)N1CCN(CCc2ccccc2)CC1 | -6.3% |
| O=C(COc1ccc(F)cc1)NCC1(N2CCOCC2)CCCCC1 | -27.9% |
| COc1ccc(OC)c(/C=N/N=C(\N)c2nonc2N)c1 | -16.5% |
| CCc1nn(C(CC)C(=O)NCCCN2CC(C)CC(C)C2)c(=O)c2cc3oc(C)cc3n12 (stereo not shown) | -37.6% |
| CN(C(=O)CSc1nc2ccccc2[nH]1)C1CCS(=O)(=O)C1 (stereo not shown) | 15.7% |
| COc1ccccc1C(=O)COC(=O)CN1C(=O)C2CC=CCC2C1=O (stereo not shown) | 26.3% |
| CCOc1ccc(C2NC(=O)C(C#N)=C(S)N2c2cccc(C)c2)cc1OC (stereo not shown) | 22.9% |
| CSc1nc2cc(C)nn2c(-c2ccccc2)c1C#N | 10.4% |
| O=c1cc(-c2ccc(O)cc2)oc2c(C3OCC(O)C(O)C3O)c(O)c(C3OC(CO)C(O)C(O)C3O)c(O)c12 (stereo not shown) | 9.99% |
| CC1=NN(c2ccccc2)C(=O)/C1=C/c1cccs1 | -2.14% |
| CCOc1cccc(OCCCCN2CCOCC2)c1 | -7.03% |
| CCNS(=O)(=O)c1ccc(CCC(=O)NCc2ccccn2)cc1 | 13.5% |
| O=S(=O)(Nc1cccnc1)c1ccc2c(c1)OCCO2 | 28.7% |

| SMILES | hERG current change (%, negative = inhibition) at 10uM |
| --- | --- |
| CCNC(=O)NC(=O)C(C)OC(=O)c1ccc(SC)cc1OC (stereo not shown) | 1.36% |
| O=C(c1cccc(F)c1)N1CCN(c2cccc(Cl)c2)CC1 | -16% |
| CCC(C)(C)C1CCC2(CC1)NC(=O)N(CC(=O)NCCOc1ccccc1)C2=O (stereo not shown) | -4.15% |
| Cc1cnc(C(=O)OCC(=O)Nc2ccc(C)c(S(=O)(=O)N(C)C)c2)cn1 | 10% |
| CCCCC(=O)Nc1cccc(NC(=S)NC(=O)C(C)C)c1 | 3.44% |
| CCOC(=O)c1cccc(NC(=O)CN(c2ccc(OC)cc2)S(=O)(=O)c2c(C)noc2C)c1 | -10.5% |
| CC(=O)c1cccc(NC(=S)Nc2ccn(Cc3cccc4ccccc34)n2)c1 | -10.4% |
| COc1ccccc1CN(C(=O)CNC(=O)c1ccco1)C(C(=O)NCC1CCCO1)c1ccccc1 (stereo not shown) | 10% |
| Cn1c(SCC(=O)N2CCN(c3ccccc3)CC2)nnc1-c1ccncc1 | -19.5% |
| O=S(=O)(NCc1cc(-c2ccccc2)no1)c1ccccc1 | 2.73% |
| CN1CCN(S(=O)(=O)c2cccc(S(=O)(=O)c3ccc(Cl)c(Cl)c3)c2)CC1 | -12.6% |
| COc1cccc(N2CCN(C(=O)NC3CCCCC3)CC2)c1 | 2.57% |
| COc1cc(C2C(C#N)=C(N)Oc3cc4c(cc32)OCO4)cc(OC)c1OC (stereo not shown) | 7.61% |
| CC[C@@H]1C(=O)OC[C@@H]1Cc1cncn1C.Cl | -7.8% |
| O=C(CSC1=NCCN1)NC(c1ccccc1)c1ccccc1 | -21.8% |
| CC1CCC(C(C)C)C(OC(=O)C[n+]2cccc(C(N)=O)c2)C1.[Cl-] (stereo not shown) | 7.66% |
| COc1cccc(-c2nnc(-c3ccc(C(F)(F)F)cc3)o2)c1OC | -0.804% |
| O=C(Nc1nnc(S(=O)(=O)N2CCCCC2)s1)c1cccc(Br)c1 | 5.98% |
| C/C(N)=C(/C#N)C(=O)COC(=O)c1ccccc1Oc1ccccc1 | -25.2% |
| Cc1c(S(=O)(=O)N2CC(C)CC(C)C2)c(=O)n(C)c(=O)n1C (stereo not shown) | 4.19% |
| Cc1cccc(N2CCN(Cc3nc(-c4cccc(Oc5ccccc5)c4)oc3C)CC2)n1 | 4.13% |
| N#C/C(=N/Nc1ccc(S(=O)(=O)N2CCOCC2)cc1)C(N)=O | 3.46% |

| SMILES | hERG current change (%, negative = inhibition) at 10uM |
| --- | --- |
| COc1ccc(N2C(=O)C3ON(C4SC(=S)N(C)C4(C)C)C(c4ccc([N+](=O)[O-])cc4)C3C2=O)cc1 (stereo not shown) | 13.4% |
| Cc1ccc(/C=N/n2c(-c3cccnc3)n[nH]c2=S)s1 | 6.3% |
| O=C(CCCn1c(=O)[nH]c2cc(Cl)ccc2c1=O)NC1CCCCCCC1 | 3.76% |
| COc1ccc2oc(C(=O)OC/C(O)=C(\C#N)c3nc4ccccc4[nH]3)c(C)c2c1 | -1.11% |
| COC(=O)C1=C(c2ccc(-c3ccccc3)c(F)c2)C[C@@H]2CC[C@H]1N2C(=O)NCCOc1ccc(OC)cc1 | 14.7% |
| COC(=O)C1=C(c2ccccc2OCc2ccccc2)C[C@@H]2CC[C@H]1N2C(=O)NCc1ccc(Br)cc1 | 6.55% |
| CN(/N=C/c1ccc(Br)o1)C1=NS(=O)(=O)c2ccccc21 | 7.33% |
| CCCn1c(=O)c(C(=O)NCc2ccccc2OC)c(O)c2ccccc21 | 18.1% |
| Cc1nc2ccc(F)cc2cc1C(=O)Nc1cccc(Cl)c1C | 17.2% |
| CCCCN1C(=O)C(=O)N(CC(=O)c2cc(C)n(C3CC3)c2C)C1=O | -10.1% |
| CCC(=O)N(C)/C=C1\Sc2ccccc2C1=O | -1.74% |
| CC(C)Oc1ccc(NC(N)=O)cc1 | 1.14% |
| Cc1ccccc1-n1nnnc1-c1ccccc1 | -11.6% |
| O=c1c2ccccc2c(/C=N/c2ncn[nH]2)c(O)n1Cc1ccccc1 | 11.3% |
| O=c1[nH]oc2cc(Cl)ccc12 | 11.3% |
| O=C(C1CC1)N1N=C2CCCCC2C1(O)C(F)(F)F (stereo not shown) | 33.6% |
| COc1ccc(N2CC(O)=C(c3nc(-c4ccc(F)cc4)cs3)C2=N)cc1Cl | 4.03% |
| COc1ccc([C@@H]2C(C#N)=C(N)S[C@@H](c3ccccc3)[C@@H]2[N+](=O)[O-])cc1 | -13.4% |
| Cc1nccc(-c2cccc(N/N=C(\C#N)C(=O)c3ccccc3)c2)n1 | -6.62% |
| N#Cc1ccc(OCC(=O)Nc2cccc(S(=O)(=O)NC3=NCCCCC3)c2)cc1 | -19.9% |
| CCOc1ccc(-c2cc(C(=O)N/N=C(\C)c3cccnc3)c3ccccc3n2)cc1 | 10.6% |
| O=C(NCc1ccc(OC(F)(F)F)cc1)C1CC(c2ccc(C(F)(F)F)cc2)=NO1 (stereo not shown) | 9.59% |
